Where “and” joins values, the source holds several entries; their conditions need not be identical. Equal values may be shown once. Out of some 420,000 compounds screened, about 50,000 (12%) were called active. The shares of active, inactive and inconclusive entries below differ from those in the screen. Calls come from the whole dose curve; as a rule, active = well fitted inhibition curve with a large enough effect; inconclusive = small, poorly fitted or top-dose-only effect; inactive = flat fitted curve, though single readings scatter. A potency beside an inconclusive call is a rough fit, not a confirmed value.
Experiment: qHTS for Inhibitors of human tyrosyl-DNA phosphodiesterase 1 (TDP1): qHTS in cells in presence of CPT; note: nearly all actives have a fitted effect of over 55% in size
Conditions: chicken DT40 Tdp1-/-;hTDP1 cells + 20 nM CPT, ATP luminescence, 48 h; series mostly up to 46.2 µM
Summary of the method: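 Chicken DT40 Tdp1-/- cells complemented with human TDP1, 400 cells/well, exposed to compounds plus 20 nM camptothecin for at least 48 h at 37 C; viability read as ATP content by CellTiter-Glo luminescence.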
Potency is the fitted concentration of half-maximal effect; tags give direction and shape of the fitted curve.

SMILES | Potency
Cn1c(=O)c(-c2ccc(Cl)cc2)nc2cnc(N3CCNCC3)nc21 | active: 10.3 µM
CCc1cc2c(SCC(=O)N3CCN(C(=O)c4cccs4)CC3)ncnc2s1 | inconclusive: 18.4 µM [inhibitor, single point]
CC1(C)Cc2c(sc(NC(=O)COc3ccc(Cl)cc3)c2C(N)=O)C(C)(C)N1 | inconclusive: 7.31 µM [inhibitor, partial curve]
O=C(OCC#Cc1c(COC(=O)c2ccccc2)nnn1Cc1ccccc1)c1ccccc1 | active: 18.4 µM
COCCn1c(=NC(=O)c2ccc3c(c2)OCCO3)sc2cc(C(=O)OC)ccc21 | inactive
CCOc1cc(Br)ccc1S(=O)(=O)N1CC(C)OC(C)C1 (configuration not stated) | active: 25.9 µM
C=CCN(C(=O)CSc1nc2c(sc3ccccc32)c(=O)n1CCN(CC)CC)c1ccccc1 | active: 18.4 µM
CC(=O)Nc1ccccc1NC(=O)C/C(C)=N/NC(=O)C(=O)N1CCCCC1 | inactive
CCOc1ccc(-n2c(C)c(C(C)=O)c(C(C)=O)c2C)cc1 | inconclusive: 23.1 µM [inhibitor, single point]
CCC(C(=O)NCc1ccc(C)o1)n1nc(C)c2c(C)n(-c3ccccc3)nc2c1=O (configuration not stated) | inactive
COc1ccc(C(=O)N2CCC(N3CCN(c4ccccc4)CC3)CC2)cc1OC | inactive
COc1ccc(N2CCOCC2)c(NC(=O)c2cccs2)c1 | inconclusive: 16.4 µM [inhibitor, partial curve]
CCOC(=O)c1cc(-c2ccccc2)n(CCC(=O)N2CCN(c3ccccc3OC)CC2)c1C | active: 11.6 µM
Cc1ccc2nc(SCC(=O)Nc3ccc(F)cc3F)nc(=O)n2c1 | inactive
COc1ccc(N2CCCn3c2nc2c3c(=O)n(Cc3ccc(C)cc3)c(=O)n2C)c(OC)c1 | inconclusive: 29.1 µM [inhibitor, single point]
O=C(Nc1ccccc1)OCc1cncs1 | inactive
CC(C)=CCC/C(C)=C/CNC(=O)C[C@H]1C[C@H](C(=O)N2CCCCC2)[C@@]2(CCc3ccccc3)c3[nH]c4cc(-c5ccco5)ccc4c3CCN2C1=O | inconclusive: 20.6 µM [inhibitor, single point]
O=C(N/N=C/c1cccc([N+](=O)[O-])c1)c1cc(-c2ccc3c(c2)OCO3)n[nH]1 | inactive
O=C(C[C@@H]1C/C=C\C[C@H](NC(=O)OCC2c3ccccc3-c3ccccc32)C(=O)O[C@H](c2ccccc2)CNC1=O)NCCO | active: 2.59 µM
CCOc1ccc(CNC(=O)Cn2cc3c(n2)-c2c(oc(C(=O)N4CCOCC4)c2C)CC3)cc1 | inconclusive: 20.6 µM [inhibitor, single point]
CSc1ccc(CNCC2CCCO2)cc1 (configuration not stated) | inactive
OC[C@@H]1CN(Cc2ccccc2)C[C@H](n2cnc3c(NC4CCCC4)ncnc32)O1 | inconclusive: 18.4 µM [inhibitor, single point]
CC(=O)C1=CCC(c2ccccc2)N(S(=O)(=O)c2ccc(Cl)cc2)C1 (configuration not stated) | inconclusive: 18.4 µM [inhibitor, single point]
Cc1ccc(CN2C(=O)C3(c4ccccc42)N(c2cccc(F)c2)C(=O)CS3(=O)=O)cc1 (configuration not stated) | active: 14.6 µM

SMILES | Potency
COc1ccccc1N1CCN(CCCNC(=O)c2cnn(-c3cccc(Cl)c3)c2C2CCN(C(=O)OC(C)(C)C)CC2)CC1 | active: 9.2 µM
O=C(NCCc1cn2ccccc2n1)c1ccccc1F | inactive
CCC(=Nc1ccc(N)cc1)C1=C(O)C(C(=O)OC)C(C)(C)CC1=O (configuration not stated) | inconclusive: 29.1 µM [inhibitor, single point]
CCC1CO/C(=C(\C(Cl)=C(Cl)Cl)[N+](=O)[O-])N1 (configuration not stated) | inactive
COc1cc(CNCc2c[nH]c3ccccc23)cc(OC)c1 | active: 5.8 µM
CCOc1ccc(N(CC(=O)NCC2CCCO2)S(=O)(=O)c2ccc(C)cc2)cc1 (configuration not stated) | inactive
Cc1ccc(C)c(N2N=C(C(=O)N(CC(C)C)c3c(N)n(Cc4ccccc4)c(=O)[nH]c3=O)CCC2=O)c1 | inactive
CC(C)n1c(=O)c2ccccc2n1CC(=O)N1CCOCC1 | inactive
CC(C)c1ccc(/C=N/NC(=O)C2CCCC2)cc1 | inconclusive: 20.6 µM [inhibitor, single point]
CCSc1nnc(NC(=O)CSc2nnc(CNC(=O)c3ccc(OC)c(OC)c3)o2)s1 | inactive
COc1cc(NC(=O)NC(C)c2c(-n3cccc3)sc3c2CCCC3)cc(OC)c1OC (configuration not stated) | inconclusive: 29.1 µM [inhibitor, single point]
COc1ccc(N2C(=O)C(O)C2c2ccc(C)cc2)cc1 (configuration not stated) | inactive
CCOC(=O)C1(Cc2ccccc2C)CCCN(Cc2ccc(NC(C)=O)cc2)C1 (configuration not stated) | inactive
CCOC(=O)c1c(C)c(-c2ccccc2)n(CC(=O)Nc2cc(C)ccc2OC)c1C | inconclusive: 16.4 µM [inhibitor, partial curve]
CCC(C)Nc1nc(N)c([N+](=O)[O-])c(NC2CCCCC2)n1 (configuration not stated) | inconclusive: 18.4 µM [inhibitor, partial curve, poor fit]
COc1cc(/C=N/NC(=O)COc2ccccc2[N+](=O)[O-])ccc1OC(=O)c1ccco1 | inconclusive: 32.6 µM [inhibitor, single point]
CCCn1c(O)c(N=Nc2ccc3ccccc3n2)c2ccccc21 | inconclusive: 25.9 µM [inhibitor, single point]
CC1=N/C(=C\c2ccc([N+](=O)[O-])cc2)C(=O)N1c1cc(Cl)ccc1C | active: 10.3 µM
c1ccc(C2Nc3ccccc3-c3nc4ccccc4n32)nc1 (configuration not stated) | inconclusive: 18.4 µM [inhibitor, partial curve]
COC(=O)[C@@H]1C[C@@H](c2ccccc2)[C@H](C)C1(C)C | inconclusive: 23.1 µM [inhibitor, partial curve]
COC(=O)Cc1ccc(NC(=S)NCCSc2ccc(Cl)cc2)cc1 | inconclusive: 29.1 µM [inhibitor, single point]
CCc1cccc(-n2nnc(-c3nsc(NC(=O)c4cccs4)n3)c2C)c1 | inconclusive: 14.6 µM [inhibitor, single point]
N#Cc1ccc(CSc2nnc(-c3cccc(S(=O)(=O)N4CCCCC4)c3)o2)cc1 | inconclusive: 20.6 µM [inhibitor, single point]
CCc1nc(N2CCN(C(=O)c3ccccc3)CC2)c2c3c(sc2n1)CCCC3 | inconclusive: 29.1 µM [inhibitor, single point]

SMILES | Potency
CC(=O)Nc1ccc2nc(-c3cc(C)ccc3C)[nH]c2c1 | active: 3.26 µM
CN(CCN(C)c1nc(-c2cccs2)nc2ccccc12)C(=O)OC(C)(C)C | active: 10 µM
COC(=O)c1cc(S(=O)(=O)N2CCN(c3cccc(OC)c3)CC2)cn1C | inactive
CCCCCCCC#Cc1ccccc1/C=N/S(=O)c1ccc(C)cc1 (configuration not stated) | active: 11.6 µM
Cn1c(=O)[nH]c(=O)c2c1nc(CN1CCN(c3ccccc3F)CC1)n2CCCc1ccccc1 | inconclusive: 23.1 µM [inhibitor, single point]
O=C(Nc1cccc(OC(F)(F)F)c1)[C@@H]1O[C@H](CO)[C@H](O)[C@H](O)[C@H]1O | inactive
Cc1ccc(C(=O)NC(C(=O)Nc2cccc(S(N)(=O)=O)c2)C(C)C)cc1 (configuration not stated) | inactive
CC(=O)Nc1cc(-c2cccc(C(=O)NCCO)c2)cn2c(-c3ccc(F)cc3)cnc12 | active: 14.6 µM
Cc1ccc(C)c(N2CCN(C(=O)c3ccc4c(=O)n5c(nc4c3)CCCCC5)CC2)c1 | active: 16.4 µM
COCCNC(=O)c1cc(-c2ccccc2)sc1N | inconclusive: 20.6 µM [inhibitor, single point]
CCOC(=O)C1(Cc2ccccc2C(F)(F)F)CCN(CC2CC2)CC1 | inconclusive: 23.1 µM [inhibitor, partial curve]
Cc1ccc(NC(=O)c2nc[nH]c2C(=O)NCc2ccccc2)cc1 | inconclusive: 29.1 µM [inhibitor, single point]
COc1ccc(S(=O)(=O)NCC(c2ccco2)N2CCN(c3ccc(F)cc3)CC2)cc1C (configuration not stated) | active: 16.4 µM
Cc1nc2ccccn2c1C(=O)N/N=C/c1ccccc1 | inactive
CCN(c1cccc(C)c1)S(=O)(=O)c1ccc(-c2coc(C)n2)cc1 | inconclusive: 29.1 µM [inhibitor, single point]
Cc1cc(/C=C2/NC(=O)N(c3ccccc3)C2=O)c(C)n1C(C)C | inconclusive: 29.1 µM [inhibitor, single point]
CC1(C)CC(=O)C2=C(C1)Nc1cc3c(cc1C2c1ccc2c(c1)OCO2)OCO3 (configuration not stated) | inconclusive: 20.6 µM [inhibitor, single point]
COc1ccccc1C(=O)NCC(=O)N1CCN(C/C=C/c2ccccc2)CC1 | inconclusive: 29.1 µM [inhibitor, single point]
O=C(N/N=C/c1ccc(N2CCOCC2)o1)c1cccc(F)c1 | inactive
Cc1ccc(OCC(O)CN2CCN(Cc3ccc4c(c3)OCO4)CC2)c(C)c1 (configuration not stated) | inconclusive: 18.4 µM [inhibitor, single point] and inconclusive: 20.6 µM [inhibitor, single point]
CCN1CCN(C(=O)c2ccc(OCC(=O)Nc3ccc(F)cc3)c(OC)c2)CC1 | inactive
O=C(Nc1ccc(F)c(Cl)c1)C1CCCN(c2cnccn2)C1 (configuration not stated) | inconclusive: 14.6 µM [inhibitor, single point]
O=S1(=O)N=C2CCCCCN2C(c2ccc(Br)cc2)N1 (configuration not stated) | inactive
CCc1ccc(NC(=O)CSc2nc3ccccc3nc2N2CCCCC2)cc1 | inconclusive: 16.4 µM [inhibitor, single point]

Reference: PubChem BioAssay AID686979 (National Center for Advancing Translational Sciences (NCATS), 2013)
